This note sets out measurements from PubChem BioAssay AID651582 (Sanford-Burnham Center for Chemical Genomics, 2012).

Several values for one entry are separate records, joined by “and”; a condition that tells them apart may be missing. Identical values can stand only once. Some of the results follow. Further columns of the screen follow, without active or inactive calls. Most of these compounds were active or inconclusive in the main read-out, so they are no random draw.

The nature of this assay: inhibitors of triacylglycerol accumulation, primary screen, cell-based, uHTS, fluorescence, H9c2 (AID 651582). The following applies: H9c2 cells, Nile Red lipid (TAG) fluorescence; measured here:; at 12.5 µM; cells loaded with 200 µM oleic acid.
With `CCOc1cc(CNCCc2ccc(S(N)(=O)=O)cc2)ccc1OCc1ccc(Cl)cc1`, the DAPI nuclei signal change (viability), lower = more cytotoxic is -7.63%.

For `CCc1nnc(NC(=O)c2cc3c(s2)CCCCC3)s1`, the DAPI nuclei signal change (viability), lower = more cytotoxic is -5.94%.

Consider `CCOc1ccc2nc(NC(=O)Cc3cccs3)sc2c1`, for which the DAPI nuclei signal change (viability), lower = more cytotoxic is -13.6%.

Turning to `Oc1ccc(C[C@H]2CNC(=S)N2CC2CCCN2C[C@H](Cc2ccc(O)cc2)N2C[C@H](Cc3ccc(O)cc3)N(CC3CCCCCC3)C2=S)cc1` (stereo not given in full), the DAPI nuclei signal change (viability), lower = more cytotoxic stood at 8.48%.

For the compound `C=C1c2nc3ccccc3n2C=C(c2ccc(C)cc2)N1c1ccccc1`, the DAPI nuclei signal change (viability), lower = more cytotoxic is -7.32%.

Regarding `O=C1C(NS(=O)(=O)c2cccs2)=C(N2CCN(c3cccc(C(F)(F)F)c3)CC2)C(=O)c2ccccc21`, the DAPI nuclei signal change (viability), lower = more cytotoxic was -16.4%.

For the compound `NC(Cc1ccc(C(F)(F)F)cc1)c1csc(Nc2ccc(C(=O)NCCCO)cn2)n1` (stereo not given), the DAPI nuclei signal change (viability), lower = more cytotoxic is -0.771%.

Consider `O=C1C=CC(=O)c2c(O)c(N3CCN(CCO)CC3)c(Cl)c(O)c21`, for which the DAPI nuclei signal change (viability), lower = more cytotoxic is -43%.

With `Cc1cccc(OCc2n(CC(=O)OC3CC(C)CCC3C(C)C)c3ccccc3[n+]2C)c1` (stereo not given), the DAPI nuclei signal change (viability), lower = more cytotoxic is -36.1%.

Regarding `COc1cc(C2=NOC(C(=O)NCc3cccs3)C2)cc(OC)c1OC` (stereo not given), the DAPI nuclei signal change (viability), lower = more cytotoxic is -22.5%.

As to `CCN1C(N(C)CCc2c[nH]c3ccccc23)=N[C@@H](c2cccc(C(F)(F)F)c2)C(C(=O)OC)=C1C`, the DAPI nuclei signal change (viability), lower = more cytotoxic is -47.6%.

On to `CCOCCC(=O)Nc1ccc2c(c1)c(=O)n(C)n2C/C=C/c1ccccc1`, for which the DAPI nuclei signal change (viability), lower = more cytotoxic was -29.1%.

Consider `CCCCc1ccc(N=N/C(C(=O)Nc2cc(OC)c(NC(C)=O)cc2OC)=C(/C)O)cc1`, for which the DAPI nuclei signal change (viability), lower = more cytotoxic was determined as 12.9%.

On to `O=c1c(Br)ccc(Br)cc1Br`, for which the DAPI nuclei signal change (viability), lower = more cytotoxic was -45.4%.

For the compound `C=CCN1C(=O)/C(=C2\SC(N3CCOCC3)=NC2=O)c2cc(Br)ccc21`, the DAPI nuclei signal change (viability), lower = more cytotoxic is 10.4%.

As to `COc1ccc(CNC(=O)c2c(C)oc3c2C(=O)c2ccccc2C3=O)cc1`, the DAPI nuclei signal change (viability), lower = more cytotoxic was -43.3%.

For `CCO[C@@H]1OC(C(=O)N2CCN(Cc3ccc4c(c3)OCO4)CC2)=C[C@H](C)[C@H]1CCCO`, the DAPI nuclei signal change (viability), lower = more cytotoxic is -32%.

As to `CC(C)n1cc(NC(=O)c2cc(-c3ccccc3)on2)cn1`, the DAPI nuclei signal change (viability), lower = more cytotoxic is -11.9%.

Regarding `CCC(C)(C)C1CCC2(CC1)NC(=O)N(CC(=O)NCCc1ccc(OC)c(OC)c1)C2=O` (stereo not given), the DAPI nuclei signal change (viability), lower = more cytotoxic was -3.8%.

In the case of `CC(=O)c1cccc(-c2ccnc3c2CC(C(=O)NCc2ccco2)O3)c1` (stereo not given), the DAPI nuclei signal change (viability), lower = more cytotoxic is -35.9%.

Consider `CCn1cc([N+](=O)[O-])c(C(=O)N2N=C(c3ccc4ccccc4c3)CC2c2cc(Br)ccc2O)n1` (stereo not given), for which the DAPI nuclei signal change (viability), lower = more cytotoxic is -3.47%.

In the case of `COC(=O)c1cc(NC(=O)c2c(Cl)nc3sccn23)cc(C(=O)OC)c1`, the DAPI nuclei signal change (viability), lower = more cytotoxic is -35.7%.

Consider `CC1=CC(C)(C)N2C(=O)C3(NCCc4c3[nH]c3ccccc43)c3cc(C)cc1c32` (stereo not given), for which the DAPI nuclei signal change (viability), lower = more cytotoxic was -32.7%.

For the compound `N#CC(C#N)=c1ccc2c(c1)N1C3=C(CCCC3)CC3CCCCC31N=2` (stereo not given), the DAPI nuclei signal change (viability), lower = more cytotoxic was -21.3%.

Regarding `COc1cc(OC)c2c(-c3ccccc3)cc(=O)oc2c1C(CCN1CCCCC1)c1ccc2c(c1)OCO2` (stereo not given), the DAPI nuclei signal change (viability), lower = more cytotoxic was -22%.

Consider `CCC(C)(C)NC(=O)C(c1ccc(C)cc1)N(Cc1ccco1)C(=O)CCC(=O)Nc1nccs1` (stereo not given), for which the DAPI nuclei signal change (viability), lower = more cytotoxic is -1.03%.

On to `COC(=O)c1ccc(Oc2cc(C)nc(SC)n2)cc1`, for which the DAPI nuclei signal change (viability), lower = more cytotoxic is -24.8%.

For the compound `Cc1cccc(-c2ccc3[nH]c4c(c3c2)CCN2C[C@@H]([C@H](C)O)[C@@H](N(C)C(=O)Nc3ccc(F)cc3)C[C@@H]42)c1`, the DAPI nuclei signal change (viability), lower = more cytotoxic was -9.31%.

With `Cc1ccccc1Oc1nc(-c2ccccn2)nc2ccccc12`, the DAPI nuclei signal change (viability), lower = more cytotoxic is -19.8%.

`O=C1NC(=S)S/C1=C\C=C\c1ccc([N+](=O)[O-])o1`: the DAPI nuclei signal change (viability), lower = more cytotoxic was -24.5%.

`COc1cc2c(c(OC)c1OC)-c1ccc(OC)c(=O)cc1C(NC(=O)c1ccccc1)CC2` (stereo not given): the DAPI nuclei signal change (viability), lower = more cytotoxic was -26.8%.

With `CC(C)N=c1cc2n(-c3ccc(Cl)cc3)c3ccccc3nc-2cc1Nc1ccc(Cl)cc1`, the DAPI nuclei signal change (viability), lower = more cytotoxic is -32.7%.

In the case of `Cc1ccc2nc(NCc3ccccc3)[nH]c2c1`, the DAPI nuclei signal change (viability), lower = more cytotoxic was -21.6%.

As to `OCCN1CCN(CC(O)COc2ccc(C34CC5CC(CC(C5)C3)C4)cc2)CC1` (stereo not given), the DAPI nuclei signal change (viability), lower = more cytotoxic was -39%.

As to `CCc1ccc(/C=N/NC(=O)c2cc(C3CC3)nc3ccc(Br)cc23)s1`, the DAPI nuclei signal change (viability), lower = more cytotoxic is -20.8%.

On to `CCN1CCN(Cc2ccc(NC(=O)c3ccc(C)c(NC(=O)C(=O)c4c[nH]c5ccccc45)c3)cc2C(F)(F)F)CC1`, for which the DAPI nuclei signal change (viability), lower = more cytotoxic was -37.1% and -1.92%.

Take `NC(=O)c1cc(-c2ccccc2)nc(N2CCOCC2)n1`: the DAPI nuclei signal change (viability), lower = more cytotoxic was -7.13%.

For the compound `COc1ccc(NC(=O)c2nc(C)c(C3(C)CC(c4ccccc4)=NO3)s2)cc1` (stereo not given), the DAPI nuclei signal change (viability), lower = more cytotoxic is -32%.

For the compound `CC(C)=CCC/C(C)=C/CNC(=O)C[C@H]1C[C@H](C(=O)N2CCOCC2)[C@@]2(CCC3CCCC3)c3[nH]c4cc(-c5ccco5)ccc4c3CCN2C1=O`, the DAPI nuclei signal change (viability), lower = more cytotoxic amounted to 24.9%.

Regarding `CSc1cccc(NC(=S)N(CCCN2CCCC2)Cc2cccn2Cc2ccc(Cl)cc2)c1`, the DAPI nuclei signal change (viability), lower = more cytotoxic was -18.1%.

`FC(F)(F)c1cc(CCN2CCNC[C@@H]2CC2CCCCC2)cc(C(F)(F)F)c1`: the DAPI nuclei signal change (viability), lower = more cytotoxic was -5.88%.

For `CC1=NN(c2nc3ccccc3[nH]2)C(=O)C1Cc1ccccc1` (stereo not given), the DAPI nuclei signal change (viability), lower = more cytotoxic was -13.3%.

Turning to `C=C1C(=O)C=C[C@]2(C)C[C@@H]3OC(=O)[C@](C)(O)[C@H]3C[C@@H]12`, the DAPI nuclei signal change (viability), lower = more cytotoxic was -47.3%.

As for `CCC(C)Nc1nc(-c2cccc(OC)c2O)nc2ccccc12` (stereo not given), the DAPI nuclei signal change (viability), lower = more cytotoxic was -26%.

`COc1cc(-c2cnc3c(NC=O)cc(-c4cccc(NC(C)=O)c4)cn23)cc(OC)c1OC`: the DAPI nuclei signal change (viability), lower = more cytotoxic is -42.5%.
